The values below come from article PMC12548428.

These are yes or no findings as the source states them, for the method shown. For part of these data: Binding seen in cells or lysates may run through a third protein. Some results given as binding are weak or reduced against the parent protein; the word gives no strength. Tags and fused reporters may be left off the sequences shown.

The target in experiment [1] is T1, cysteine sulfinic acid decarboxylase (CSAD), Flag-tagged (human) (UniProt Q9Y600).
T1 sequence: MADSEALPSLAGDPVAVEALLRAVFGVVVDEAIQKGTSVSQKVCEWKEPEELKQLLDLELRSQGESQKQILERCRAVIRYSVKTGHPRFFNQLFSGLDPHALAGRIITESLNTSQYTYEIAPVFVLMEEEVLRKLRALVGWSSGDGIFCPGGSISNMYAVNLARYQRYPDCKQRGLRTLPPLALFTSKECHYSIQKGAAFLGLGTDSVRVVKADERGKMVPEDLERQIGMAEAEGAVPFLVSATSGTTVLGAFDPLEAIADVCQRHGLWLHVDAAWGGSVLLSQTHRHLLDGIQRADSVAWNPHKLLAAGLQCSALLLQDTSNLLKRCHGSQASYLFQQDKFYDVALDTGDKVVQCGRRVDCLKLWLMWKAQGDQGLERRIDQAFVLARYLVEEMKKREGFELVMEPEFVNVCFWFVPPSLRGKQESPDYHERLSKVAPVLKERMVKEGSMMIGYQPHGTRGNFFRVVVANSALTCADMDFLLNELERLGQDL
Briefly: co-IP; 293T cells cotransfected with Flag-tagged CSAD (full length, T1 or T2) and HA-tagged IKKα (full length, T1, T2) or IKKβ; lysed 36 h after transfection; supernatant with anti-flag M2 affinity beads 3 h, four washes with lysis buffer; Western blot.

In experiment [2] the target is T1, cysteine sulfinic acid decarboxylase (CSAD), Flag-tagged (human). Briefly: co-IP; 293T cells transfected with CSAD-Flag only; lysate with anti-flag affinity gel; endogenous IKKα and IKKβ detected by Western blot.
The next experiment deals with T2, IKKβ, Gal4 DNA-BD fusion (UniProt O14920).
T2 sequence: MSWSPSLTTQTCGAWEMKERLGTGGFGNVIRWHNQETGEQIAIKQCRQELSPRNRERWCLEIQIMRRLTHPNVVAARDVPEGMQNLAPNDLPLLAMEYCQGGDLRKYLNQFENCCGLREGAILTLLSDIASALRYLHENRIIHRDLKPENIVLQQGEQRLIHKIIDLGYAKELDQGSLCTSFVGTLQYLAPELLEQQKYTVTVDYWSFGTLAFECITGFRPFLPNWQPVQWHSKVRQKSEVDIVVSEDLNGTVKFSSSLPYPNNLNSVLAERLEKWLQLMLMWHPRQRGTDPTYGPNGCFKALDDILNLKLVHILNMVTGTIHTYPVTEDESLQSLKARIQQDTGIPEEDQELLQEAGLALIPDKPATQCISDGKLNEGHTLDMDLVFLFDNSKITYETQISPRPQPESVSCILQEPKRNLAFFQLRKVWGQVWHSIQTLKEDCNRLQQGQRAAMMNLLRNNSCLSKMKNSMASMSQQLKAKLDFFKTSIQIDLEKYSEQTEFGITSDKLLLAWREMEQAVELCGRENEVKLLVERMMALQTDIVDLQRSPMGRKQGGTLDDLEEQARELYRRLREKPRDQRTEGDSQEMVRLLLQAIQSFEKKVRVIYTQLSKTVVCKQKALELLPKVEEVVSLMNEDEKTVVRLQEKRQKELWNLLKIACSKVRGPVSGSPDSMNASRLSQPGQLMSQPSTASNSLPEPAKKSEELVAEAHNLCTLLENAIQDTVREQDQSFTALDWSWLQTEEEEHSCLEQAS
Put plainly: two-hybrid; Matchmaker system (Clontech), Y2H Gold strain; IKKα or IKKβ as Gal4 DNA-BD bait (pGBKT7), CSAD as Gal4 AD prey (pGADT7); selection on SD/-Ade/-His/-Leu/-Trp/+AbA/+X-α-Gal (QDO/A/X), blue colonies.

A further experiment addresses T3, IKKα, Gal4 DNA-BD fusion (UniProt O15111).
T3 sequence: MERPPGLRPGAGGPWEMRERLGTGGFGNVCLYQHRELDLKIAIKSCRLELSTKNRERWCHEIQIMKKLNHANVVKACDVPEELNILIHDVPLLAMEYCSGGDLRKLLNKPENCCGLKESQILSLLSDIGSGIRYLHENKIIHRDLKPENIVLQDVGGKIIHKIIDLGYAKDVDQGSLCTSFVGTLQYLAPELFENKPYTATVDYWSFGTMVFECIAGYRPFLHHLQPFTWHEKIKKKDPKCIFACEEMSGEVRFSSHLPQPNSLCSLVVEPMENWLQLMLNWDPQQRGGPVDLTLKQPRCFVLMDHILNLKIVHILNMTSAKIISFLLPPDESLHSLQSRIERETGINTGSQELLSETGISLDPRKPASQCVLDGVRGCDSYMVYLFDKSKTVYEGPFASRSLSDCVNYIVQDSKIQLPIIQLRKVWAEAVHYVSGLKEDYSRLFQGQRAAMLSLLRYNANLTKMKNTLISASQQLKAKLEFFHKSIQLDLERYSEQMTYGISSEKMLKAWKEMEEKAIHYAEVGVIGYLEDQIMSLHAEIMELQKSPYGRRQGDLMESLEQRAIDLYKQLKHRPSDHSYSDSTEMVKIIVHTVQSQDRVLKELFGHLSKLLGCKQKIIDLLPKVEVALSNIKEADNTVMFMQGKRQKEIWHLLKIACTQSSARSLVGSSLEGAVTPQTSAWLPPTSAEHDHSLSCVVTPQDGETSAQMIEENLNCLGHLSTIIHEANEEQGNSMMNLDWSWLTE
The experiment is described as above.

B1: IKKα-T2 (372–745 aa), HA-tagged (domain or fragment, UniProt O15111 372-745)
chain: VLDGVRGCDSYMVYLFDKSKTVYEGPFASRSLSDCVNYIVQDSKIQLPIIQLRKVWAEAVHYVSGLKEDYSRLFQGQRAAMLSLLRYNANLTKMKNTLISASQQLKAKLEFFHKSIQLDLERYSEQMTYGISSEKMLKAWKEMEEKAIHYAEVGVIGYLEDQIMSLHAEIMELQKSPYGRRQGDLMESLEQRAIDLYKQLKHRPSDHSYSDSTEMVKIIVHTVQSQDRVLKELFGHLSKLLGCKQKIIDLLPKVEVALSNIKEADNTVMFMQGKRQKEIWHLLKIACTQSSARSLVGSSLEGAVTPQTSAWLPPTSAEHDHSLSCVVTPQDGETSAQMIEENLNCLGHLSTIIHEANEEQGNSMMNLDWSWLTE
In the case of B1, the binding result in experiment [1] is “no binding”.

B2: IKKα-T1 (1–371 aa), HA-tagged (domain or fragment, UniProt O15111 1-371)
chain: MERPPGLRPGAGGPWEMRERLGTGGFGNVCLYQHRELDLKIAIKSCRLELSTKNRERWCHEIQIMKKLNHANVVKACDVPEELNILIHDVPLLAMEYCSGGDLRKLLNKPENCCGLKESQILSLLSDIGSGIRYLHENKIIHRDLKPENIVLQDVGGKIIHKIIDLGYAKDVDQGSLCTSFVGTLQYLAPELFENKPYTATVDYWSFGTMVFECIAGYRPFLHHLQPFTWHEKIKKKDPKCIFACEEMSGEVRFSSHLPQPNSLCSLVVEPMENWLQLMLNWDPQQRGGPVDLTLKQPRCFVLMDHILNLKIVHILNMTSAKIISFLLPPDESLHSLQSRIERETGINTGSQELLSETGISLDPRKPASQC
B2: in experiment [1], the binding result is reported as “binds”.

B3: IKKβ, HA-tagged (enzyme, UniProt O14920 1-756)
chain: MSWSPSLTTQTCGAWEMKERLGTGGFGNVIRWHNQETGEQIAIKQCRQELSPRNRERWCLEIQIMRRLTHPNVVAARDVPEGMQNLAPNDLPLLAMEYCQGGDLRKYLNQFENCCGLREGAILTLLSDIASALRYLHENRIIHRDLKPENIVLQQGEQRLIHKIIDLGYAKELDQGSLCTSFVGTLQYLAPELLEQQKYTVTVDYWSFGTLAFECITGFRPFLPNWQPVQWHSKVRQKSEVDIVVSEDLNGTVKFSSSLPYPNNLNSVLAERLEKWLQLMLMWHPRQRGTDPTYGPNGCFKALDDILNLKLVHILNMVTGTIHTYPVTEDESLQSLKARIQQDTGIPEEDQELLQEAGLALIPDKPATQCISDGKLNEGHTLDMDLVFLFDNSKITYETQISPRPQPESVSCILQEPKRNLAFFQLRKVWGQVWHSIQTLKEDCNRLQQGQRAAMMNLLRNNSCLSKMKNSMASMSQQLKAKLDFFKTSIQIDLEKYSEQTEFGITSDKLLLAWREMEQAVELCGRENEVKLLVERMMALQTDIVDLQRSPMGRKQGGTLDDLEEQARELYRRLREKPRDQRTEGDSQEMVRLLLQAIQSFEKKVRVIYTQLSKTVVCKQKALELLPKVEEVVSLMNEDEKTVVRLQEKRQKELWNLLKIACSKVRGPVSGSPDSMNASRLSQPGQLMSQPSTASNSLPEPAKKSEELVAEAHNLCTLLENAIQDTVREQDQSFTALDWSWLQTEEEEHSCLEQAS
For B3, the binding result in experiment [1] is “no binding”.

B4: endogenous IKKβ (enzyme, UniProt O14920 1-756)
chain: MSWSPSLTTQTCGAWEMKERLGTGGFGNVIRWHNQETGEQIAIKQCRQELSPRNRERWCLEIQIMRRLTHPNVVAARDVPEGMQNLAPNDLPLLAMEYCQGGDLRKYLNQFENCCGLREGAILTLLSDIASALRYLHENRIIHRDLKPENIVLQQGEQRLIHKIIDLGYAKELDQGSLCTSFVGTLQYLAPELLEQQKYTVTVDYWSFGTLAFECITGFRPFLPNWQPVQWHSKVRQKSEVDIVVSEDLNGTVKFSSSLPYPNNLNSVLAERLEKWLQLMLMWHPRQRGTDPTYGPNGCFKALDDILNLKLVHILNMVTGTIHTYPVTEDESLQSLKARIQQDTGIPEEDQELLQEAGLALIPDKPATQCISDGKLNEGHTLDMDLVFLFDNSKITYETQISPRPQPESVSCILQEPKRNLAFFQLRKVWGQVWHSIQTLKEDCNRLQQGQRAAMMNLLRNNSCLSKMKNSMASMSQQLKAKLDFFKTSIQIDLEKYSEQTEFGITSDKLLLAWREMEQAVELCGRENEVKLLVERMMALQTDIVDLQRSPMGRKQGGTLDDLEEQARELYRRLREKPRDQRTEGDSQEMVRLLLQAIQSFEKKVRVIYTQLSKTVVCKQKALELLPKVEEVVSLMNEDEKTVVRLQEKRQKELWNLLKIACSKVRGPVSGSPDSMNASRLSQPGQLMSQPSTASNSLPEPAKKSEELVAEAHNLCTLLENAIQDTVREQDQSFTALDWSWLQTEEEEHSCLEQAS
With B4, the binding result in experiment [2] is listed as “no binding”.

B5: CSAD, Gal4 AD fusion (enzyme, UniProt Q9Y600 1-493)
chain: MADSEALPSLAGDPVAVEALLRAVFGVVVDEAIQKGTSVSQKVCEWKEPEELKQLLDLELRSQGESQKQILERCRAVIRYSVKTGHPRFFNQLFSGLDPHALAGRIITESLNTSQYTYEIAPVFVLMEEEVLRKLRALVGWSSGDGIFCPGGSISNMYAVNLARYQRYPDCKQRGLRTLPPLALFTSKECHYSIQKGAAFLGLGTDSVRVVKADERGKMVPEDLERQIGMAEAEGAVPFLVSATSGTTVLGAFDPLEAIADVCQRHGLWLHVDAAWGGSVLLSQTHRHLLDGIQRADSVAWNPHKLLAAGLQCSALLLQDTSNLLKRCHGSQASYLFQQDKFYDVALDTGDKVVQCGRRVDCLKLWLMWKAQGDQGLERRIDQAFVLARYLVEEMKKREGFELVMEPEFVNVCFWFVPPSLRGKQESPDYHERLSKVAPVLKERMVKEGSMMIGYQPHGTRGNFFRVVVANSALTCADMDFLLNELERLGQDL
Turning to B5, the binding result in the experiment with IKKβ, Gal4 DNA-BD fusion is reported as “no binding”; in the experiment with IKKα, Gal4 DNA-BD fusion, “binds”.
